# Source: PMC4336329 (PLoS ONE, 2015)
# The campaign covered roughly 310,000 compounds. About 14,000 (4.5%) showed an effect of 50% or more. Effects have a minus sign here. Some of the results follow.
# Molecular target: human ether-à-go-go-related gene (hERG) potassium channel (human, UniProt Q12809)
# Assay: primary screen, population patch clamp on CHO cells stably expressing hERG
# 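Further: peak tail current of the secondary pulse compared with the same well before compound.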
# human ether-à-go-go-related gene (hERG) potassium channel, sequence (Q12809 whole entry, looked up): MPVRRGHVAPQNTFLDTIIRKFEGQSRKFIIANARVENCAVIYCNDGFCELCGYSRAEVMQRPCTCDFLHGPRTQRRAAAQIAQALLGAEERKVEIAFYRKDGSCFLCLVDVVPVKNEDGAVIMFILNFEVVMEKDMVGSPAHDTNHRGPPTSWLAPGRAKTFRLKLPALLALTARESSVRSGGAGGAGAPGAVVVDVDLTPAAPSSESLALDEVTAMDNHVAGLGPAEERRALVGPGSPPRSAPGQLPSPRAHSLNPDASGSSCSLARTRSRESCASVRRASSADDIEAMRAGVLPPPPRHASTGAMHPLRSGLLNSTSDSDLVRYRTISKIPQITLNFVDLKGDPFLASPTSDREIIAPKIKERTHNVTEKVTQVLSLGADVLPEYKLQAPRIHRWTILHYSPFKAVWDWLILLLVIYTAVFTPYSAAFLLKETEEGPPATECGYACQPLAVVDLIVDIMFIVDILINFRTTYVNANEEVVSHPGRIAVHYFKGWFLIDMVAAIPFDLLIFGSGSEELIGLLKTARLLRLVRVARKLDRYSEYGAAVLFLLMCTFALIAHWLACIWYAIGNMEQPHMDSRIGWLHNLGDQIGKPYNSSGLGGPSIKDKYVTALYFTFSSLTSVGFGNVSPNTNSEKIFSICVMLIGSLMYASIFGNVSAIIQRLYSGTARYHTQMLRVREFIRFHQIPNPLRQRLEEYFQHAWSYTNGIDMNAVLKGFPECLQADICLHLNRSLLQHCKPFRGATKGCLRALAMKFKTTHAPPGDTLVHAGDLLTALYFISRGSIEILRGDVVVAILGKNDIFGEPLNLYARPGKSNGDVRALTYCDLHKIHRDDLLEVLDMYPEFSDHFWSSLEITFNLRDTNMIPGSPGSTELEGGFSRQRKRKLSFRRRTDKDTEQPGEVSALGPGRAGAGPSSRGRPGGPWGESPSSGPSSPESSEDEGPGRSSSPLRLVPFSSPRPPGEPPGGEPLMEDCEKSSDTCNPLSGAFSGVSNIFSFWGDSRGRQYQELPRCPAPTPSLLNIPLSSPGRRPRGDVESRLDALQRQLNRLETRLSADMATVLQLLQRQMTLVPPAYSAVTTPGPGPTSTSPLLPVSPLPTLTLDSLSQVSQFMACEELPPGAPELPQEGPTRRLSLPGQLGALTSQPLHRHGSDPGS
row,Structure (SMILES),"hERG current change (%, negative = inhibition) at 10uM"
1,S=c1nc(Cc2ccccc2)[nH]c2ccccc12,18.6%
2,CCS(=O)(=O)c1ccc(O)c(N2C(=O)C3C4C=CC(C4)C3C2=O)c1 (stereo not shown),6.35%
3,Cc1c(NC(=O)C(C)OC(=O)/C=C/c2ccc3c(c2)OCO3)c(=O)n(-c2ccccc2)n1C (stereo not shown),-0.675%
4,CC1(c2ccc(OC(F)F)cc2)NC(=O)N(CC(=O)Nc2cccnc2Cl)C1=O (stereo not shown),-38.6%
5,CC(C)(C)c1cc[n+](-c2[nH]c(=O)sc2/C=N/NC([S-])=Nc2ccccc2)cc1,-17%
6,CCOC(=O)N1CCN(C(=O)CNS(=O)(=O)c2cccs2)CC1,-10.5%
7,COc1cccc(NC(=O)C(=O)NCc2ccncc2)c1,19.7%
8,COCCCNC(=O)CCc1nc2cccnc2n1Cc1ccc(OC)cc1,10.8%
9,N#Cc1ccc(CSc2nnc(-c3c[nH]c4ccccc34)n2-c2ccccc2)cc1,5.38%
10,COC(=O)c1cn(-c2ccccc2)c(=O)c2ccccc12,-2.04%
11,CCN(Cc1ccccc1)C(=O)CN1C(=O)NC(CC)(c2ccc(F)cc2)C1=O (stereo not shown),-7.55%
12,COc1ccc(/C=N/NC(=O)c2cccc(NC(=O)c3ccccc3Cl)c2)cc1OC,-3.89%
13,CCOC(=O)c1ccc(NC(=O)C2(c3ccc(Cl)cc3)CCCC2)cc1,2.55%
14,COc1cccc(C(=O)COC(=O)c2n[nH]c(=O)c3ccccc23)c1,9.65%
15,COc1ccc(-c2cnnn2-c2ccc(N)cc2)cc1OC,-10.7%
16,CCOC(=O)C1=C(C)N(C)C(=O)NC1c1cccc([N+](=O)[O-])c1 (stereo not shown),-8.48%
17,O=C(N/N=C\c1cc(Br)cs1)C1COc2ccccc2O1 (stereo not shown),18.9%
18,O=c1oc2cc([N+](=O)[O-])ccc2nc1/C=C(O)/C=C/c1ccccc1,16.2%
19,CC(C)C[C@]1(c2ccccc2)ON(c2ccccc2C(F)(F)F)C1=O,8.4%
20,CSCCOC(=O)C1=C(C)NC(=O)CC1c1ccccc1Cl (stereo not shown),-27.5%
21,O=C(NC1CC1)C1=C[C@H](c2c[nH]c3ccccc23)C[C@H](OCCCCO)O1,6.67%
22,Cc1ccc(S(=O)(=O)c2cc3c(=O)n4ccccc4nc3n(C)c2=N)cc1,2.04%

row,Structure (SMILES),"hERG current change (%, negative = inhibition) at 10uM"
1,CC(=O)Nc1ccc(NC(=S)Nc2ccc(F)cc2)cc1,15.9%
2,Cc1ccc(NC(=O)C(=O)NCc2ccccn2)cc1,25.5%
3,c1ccc(-c2nc3ccccn3c2NCc2ccc3c(c2)OCO3)cc1,-36.1%
4,CC(=O)Nc1sc(NC(=O)c2ccc(C)cc2)nc1-c1cccs1,14.7%
5,COc1ccc(C2CC(=O)C(C=NCCCN3CCOCC3)=C(O)C2)cc1 (stereo not shown),27.7%
6,Cc1c(N=C2N=C(NC(=O)NC(C)(C)C)c3ccccc32)c(=O)n(-c2ccccc2)n1C,27%
7,CC(C)(COC(=O)Nc1ccccc1)COC(=O)Nc1ccccc1,-9.22%
8,Cc1cccc(CSCc2ccc(C(=O)O)o2)c1,16.5%
9,C/C(=N\NC(=O)CNC(=O)C1COc2ccccc2O1)c1ccco1 (stereo not shown),-41.3%
10,Cc1cc(C(=O)CSc2nnnn2C)c(C)n1CCc1ccc(Cl)cc1,-1.64%
11,Cc1c(/C=N/O)c2ccccn2c1C(=O)c1ccc(F)cc1,4.47%
12,Cc1cc(C)c2nc(NC(=O)c3ccc([N+](=O)[O-])o3)sc2c1,33.3%
13,CCC(=O)N/N=C/c1ccc(-c2ccc(Cl)cc2)o1,3.47%
14,COc1cccc(C=Nc2ccc(N3CCOCC3)cc2)c1O,17.9%
15,c1csc(C(c2nnnn2C2CCCC2)N2CCCC3(CCCCC3)C2)c1 (stereo not shown),3.5%
16,CS(=O)(=O)N1CCC(C(=O)Nc2ccc(F)cc2)CC1,13.5%
17,Cc1cc(C)nc(N/N=C/c2cccc([N+](=O)[O-])c2)n1,0.264%
18,COc1cccc(CN2CCN(C3CCN(c4ccccc4F)CC3)CC2CCO)c1 (stereo not shown),-74.9%
19,Clc1ccc(-n2nnnc2-c2cnc3ccccc3c2-c2ccccc2)cc1,1.26%
20,COCc1cc(C(C)=O)ccc1OC,8.27%
21,Cc1ccc(S(=O)(=O)c2cn(Cc3ccc(F)cc3)c3cc4c(cc3c2=O)OCO4)cc1,-55%
22,CCC(=O)O.O=C(Nc1cccc(C2=NCCN2)c1)Nc1cccc(C2=NCCN2)c1,1.17%

row,Structure (SMILES),"hERG current change (%, negative = inhibition) at 10uM"
1,CN(C)c1ccc2nsnc2c1[N+](=O)[O-],-4.4%
2,CCC1(CC)C(=O)NC(=O)NC1=Nc1cccc(OC)c1,4.6%
3,c1ccc(OCc2nc(-c3ccncc3)no2)cc1,-21.6%
4,COc1ccc(CNC(=O)CCN2C(=O)c3ccccc3C2=O)cc1OC,16.7%
5,CC1=NOC(=O)/C1=C/c1ccc2c(c1)OCO2,44.8%
6,O=S(=O)(Nc1ccc(-c2cn3cccnc3n2)cc1)c1ccccc1,9.2%
7,Clc1ccccc1N1CCN(c2ncnc3nc[nH]c23)CC1,14.1%
8,O=C(Nc1cccc(Br)c1)c1ccc(CSc2ccccc2)cc1,3.37%
9,O=C(OCCN1CCN(C2=NS(=O)(=O)c3ccccc32)CC1)c1ccccc1F,-16.9%
10,Cn1cccc1C(=O)NC(=O)COC(=O)c1ccccc1Sc1ccccc1C#N,-5.81%
11,COC(=O)c1cc(NC(=O)CC2C(=O)NCCN2C(=O)c2ccc(F)cc2)cc(C(=O)OC)c1 (stereo not shown),11.9%
12,O=c1/c(=C\c2ccc(F)cc2)sc2n1CCCN=2,-13.2%
13,O=C(C1=C[C@@H](c2ccccc2)C[C@@H](OCc2ccc(CO)cc2)O1)N1CCOCC1,-45%
14,CC(=O)Nc1ccc(/C(C)=N/NC(=O)CN(c2ccccc2Br)S(C)(=O)=O)cc1,-4.13%
15,CCCOc1ccc(C(=O)Nc2ccc(CN3CCOCC3)cc2)cc1,8.46%
16,O=c1[nH]c(C2CCCN(S(=O)(=O)Cc3ccccc3)C2)nc2c1nnn2Cc1cccc(Cl)c1 (stereo not shown),28.5%
17,O=C(Cn1c(CN2CCCCC2)nc2ccccc2c1=O)NC1CCCCC1,-1.03%
18,Cc1cccc(CN2C[C@]34CC[C@@H](C[C@@H]3S2(=O)=O)O4)c1,7.08%
19,COc1ccc(N2CCN(C(=O)c3[nH]c4ccc(OC)cc4c3C)CC2)cc1,7.82%
20,O=C(CNC(=O)c1ccc(Cl)cc1)c1ccc(Br)cc1,7.04%
21,CCCCCc1cc(=O)oc2c(C(CCN3CCCCC3)c3ccc(OC)cc3)c(OC)cc(OC)c12 (stereo not shown),-59.1%
22,Cc1cc(N2CC34C=CC(O3)C(C(=O)O)C4C2=O)no1 (stereo not shown),2.22%

row,Structure (SMILES),"hERG current change (%, negative = inhibition) at 10uM"
1,CC(=O)c1cccc(NC(=O)c2cccc(N3C(=O)c4ccccc4C3=O)c2)c1,-10.5%
2,CCN(CC)c1ccc(C=C2C(=O)N(C)C(=S)N(C)C2=O)o1,7.37%
3,CCOC(=O)C1CCN(C2=NC(=O)/C(=C/c3ccc(O)cc3)S2)CC1,-67.1%
4,CCC(=O)N1CCN(c2ccc(Cl)cc2NC(=O)c2ccc(N3CCCC3)c([N+](=O)[O-])c2)CC1,-6.9%
5,COc1ccc(/C=C(/NC(=O)c2ccccc2)C(=O)NC2CCS(=O)(=O)C2)cc1 (stereo not shown),-5.25%
6,O=C(NC1CCCCCC1)c1nnc(Cc2ccc(Cl)cc2)o1,1.29%
7,Cn1c(N)c(C(=O)COC(=O)c2cc(C3CC3)nc3ccccc23)c(=O)n(Cc2ccccc2)c1=O,38%
8,O=c1c2ccccc2nc2n1CCC2O (stereo not shown),5.26%
9,Cc1cc(C)c(NC(=O)CN(C2CCCCC2)C2CCCCC2)c(C)c1,-8.27%
10,Cc1cc(C)n(C(=O)C(C)N2C(=O)c3ccccc3C2=O)n1 (stereo not shown),-9.79%
11,CCC1CCCCN1C(=O)CSc1nnc(-c2ccc(Cl)s2)o1 (stereo not shown),-18.7%
12,Cc1cc(C(=O)COC(=O)C2=COCCO2)c(C)n1-c1cccc(F)c1,-46.4%
13,CC(=O)c1cccc(S(=O)(=O)N2CCC(c3nc4ccccc4[nH]3)CC2)c1,-56.6%
14,CCCn1ncc(OC)c(Cl)c1=O,11.4%
15,COC(=O)c1c(NC(=O)CC2SC(N)=NC2=O)sc2c1CCCC2 (stereo not shown),8.98%
16,CCOC(=O)C1(Cc2ccccc2)CCN(Cc2cc(OC)c3c(c2)OCO3)CC1,-60.7%
17,O=C(O)c1cc(NN=C2c3ccccc3-c3ccccc32)ccc1Cl,13.7%
18,O=C(Cc1nnc(NC(=O)c2ccccc2)s1)N/N=C/c1cccc(O)c1,15.5%
19,CCOC(=O)CSc1nc2sc3c(c2c(=O)n1-c1ccccc1)CCN(C(C)C)C3,16.1%
20,Cc1cc(NC(=O)CN2C(=O)NC(Cc3ccccc3)C2=O)no1 (stereo not shown),-0.763%
21,CCN1CCN(CCC(=O)Nc2cccc(OC)c2)CC1.Cl,-10.6%
22,Nn1c(SCC(=O)Nc2ccc(F)cc2F)nnc1C1CCCCC1,-19.1%
